Results reported in PubChem BioAssay AID493208 (National Center for Advancing Translational Sciences (NCATS), 2011).
About 340 (0.77%) of roughly 44,000 compounds were called active. Another 5% or so got no clear call; they are omitted. The call rests on the fitted dose curve; in most records, active means well fitted inhibition curve with a large enough effect; inconclusive means small, poorly fitted or top-dose-only effect; inactive means flat fitted curve, though single readings scatter. This is one part of the list.

Test: Acumen qHTS Assay for Inhibitors of the mTORC1 Signaling Pathway in MEF (Tsc2-/-, p53-/-) Cells: Sytravon; further: nearly all actives have a fitted effect of over 50% in size;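 on activity change, negative = inhibition: plate controls were DMSO for no effect and rapamycin for full effect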
Conditions: phospho-rpS6 immunofluorescence/PI, 24 h; series mostly up to 38.3 µM; activity change, negative = inhibition: at the top concentration
Method in brief: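 Compounds act on Tsc2-/-, p53-/- fibroblasts carrying an empty vector for 24 h before fixation and dual staining for phospho-S6 and DNA (propidium iodide). Values are percentages of cells above a rapamycin-defined pS6/PI threshold.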
Potency means the concentration at half of the fitted maximal effect.

SMILES	activity change, negative = inhibition	Potency
O=C(CCS(=O)(=O)c1nc(-c2cccs2)cc(C(F)(F)F)n1)Nc1ccc(OC(F)(F)F)cc1	inactive: -17.1%	–
COc1ccc(OC)c(NC(=O)c2cc3c(n(-c4ccc(Cl)cc4)c2=O)CC(C)(C)CC3=O)c1	inactive: 0.202%	–
COc1cccc(-c2nn(C)c3sc(C(=O)NCc4cc(OC)ccc4OC)cc23)c1	inactive: -0.768%	–
O=C(CN1CCN(Cc2ccc(F)cc2)C1=O)NCc1ccccc1Cl	inactive: -13.8%	–
Cc1cc(C)c(S(=O)(=O)Nc2ccc(-c3ccc(N4CCC(C)CC4)nn3)cc2)cc1C	inactive: -8.14%	–
COc1ccc(OCC(=O)Nc2nnc(S(=O)(=O)N3CCc4ccccc43)s2)cc1	inactive: -3.55%	–
Cc1cccc(C)c1Nc1c(-c2ccccc2F)nc2cccc(C)n12	inactive: -8.6%	–
CCCCN(CC)CCNC(=O)c1c(C)oc2ncnc(N3CCOCC3)c12	inactive: -1.47%	–
Cc1ccccc1C(=O)Nc1cc2c(cc1N1CCOCC1)n(C)c(=O)n2C	inactive: -8.85%	–
Cc1ccc2oc3c(c(=O)c2c1)C(c1ccc(O)cc1)N(Cc1ccc2c(c1)OCO2)C3=O (stereo not drawn)	inactive: -4.35%	–
CCOc1ccc(C(=O)c2cn(CC(=O)Nc3ccc(OC)cc3)c3cc4c(cc3c2=O)OCCO4)cc1	inactive: 3.55%	–
COc1ccc2[nH]c(=O)c(CN(C(=O)c3cccc(Cl)c3)c3ccccc3C)cc2c1	inactive: 1.3%	–
Cc1cc2nnc(SCc3ccc(F)cc3)n2c2ccccc12	inactive: 1.1%	–
CC(C)CCn1c(=O)c2cccnc2n(CC(=O)Nc2ccc(F)cc2)c1=O	inactive: -11.5%	–
COc1cccc(-c2cc(C(=O)Nc3c(C)nn(Cc4ccccc4Cl)c3C)no2)c1	inactive: -6.19%	–
COc1ccc2occ(CC(=O)Nc3ccc(S(=O)(=O)Nc4nccc(C)n4)cc3)c2c1	inactive: -1.94%	–
Cc1ccc(CNC(=O)c2sc3nc[nH]c(=O)c3c2C)cc1	inactive: -10%	–
CC1CN(c2ccc(Cl)cc2)c2nc3c(c(=O)n(CC(=O)O)c(=O)n3C)n2C1 (stereo not drawn)	inactive: -3.64%	–
C#CCn1c(C2CC(=O)N(c3ccc(OC)cc3)C2)nc2ccccc21 (stereo not drawn)	inactive: -0.0406%	–
CN1CCN(C2(CNC(=O)c3ccc(C(C)(C)C)cc3)CCCCC2)CC1	–	active: 16.5 µM
COc1ccc(-n2c3c(c(=O)[nH]c2=O)C(NC(=O)c2ccccc2Cl)(C(F)(F)F)C(=O)N3)cc1 (stereo not drawn)	inactive: 12.6%	–
COc1cccc(C(=O)NCc2ccc3c(c2)CCN3C(=O)c2ccncc2)c1	inactive: -17.6%	–
COc1cccc(CNC(=O)Cn2c(=O)ccc3cc(S(=O)(=O)N4CCC(C)CC4)ccc32)c1	inactive: -11.4%	–
COc1ccc(-c2[nH]c(-c3cccc(OC)c3)nc2SCC(=O)Nc2ccc3c(c2)OCO3)cc1	inactive: -5.35%	–

SMILES	activity change, negative = inhibition	Potency
COc1ccccc1-c1nc(SCC(=O)c2ccccc2)n[nH]1	inactive: -12%	–
COc1ccc(CNc2nc(SCc3ccc(Cl)cc3)nc3ccccc23)cc1	inactive: 0.497%	–
COc1ccc(-c2c3c(=O)n(C)c(=O)n(C)c3c3n2-c2ccccc2NC3c2ccc(OC)cc2)cc1 (stereo not drawn)	inactive: -6.4%	–
Cc1ccc(NC(=O)c2cc(S(=O)(=O)N(C)C3CCCCC3)ccc2F)cc1C	inactive: 3.62%	–
COc1ccccc1C(=O)Oc1c(Sc2ccccc2)c(C)nn1C(C)(C)C	inactive: 3.23%	–
CCN(c1cccc(C)c1)S(=O)(=O)c1ccc(N2CCCCS2(=O)=O)cc1	inactive: -0.85%	–
COc1ccc(NC(=O)c2ccc(-c3nc(CSc4ccc(C)cc4)c(C)o3)cc2)cc1Cl	inactive: -6.61%	–
O=C(Nc1ccc(C(=O)N2CCN(c3cccc(Cl)c3)CC2)cc1)c1nsc2ccccc12	inactive: 4.72%	–
CCCCCN1C(C(=O)c2ccccc2)=C(NC(=O)c2ccc(OC)cc2)c2ccccc2S1(=O)=O	inactive: -9.95%	–
Cc1cc(C)c(NC(=O)C(C)n2c(=O)c(C(F)(F)F)nc3ccccc32)c(C)c1 (stereo not drawn)	inactive: 6.44%	–
CCC(=O)N1CCc2cc(S(=O)(=O)NC(C(=O)NCCc3ccccc3)C(C)C)ccc21 (stereo not drawn)	inactive: 0.364%	–
Cc1cc(C)cc(OCC(=O)Nc2nc3c(s2)CC(C(C)(C)C)CC3)c1 (stereo not drawn)	inactive: -0.193%	–
CCOC(=O)CC(NC(=O)CCc1c(C)nc2c(c(C)nn2-c2ccc(C)c(C)c2)c1C)c1ccc(C)cc1 (stereo not drawn)	inactive: -0.0784%	–
Cc1cccc(-n2ncc(C(=O)N3CCN(C4CCCCC4)CC3)c2C2CCN(C(=O)OC(C)(C)C)CC2)c1	inactive: -4.79%	–
COc1ccc(OC)c2sc(NC(=O)c3ccc(S(=O)(=O)N4CCCC4)cc3)nc12	inactive: 0%	–
CC(NC(=O)c1ccc2c(c1)CCN2S(C)(=O)=O)c1ccccc1 (stereo not drawn)	inactive: -0.138%	–
Cc1c(Cl)cccc1NC(=O)c1cccc(NC(=O)N2CCSc3ncccc32)c1	inactive: -0.368%	–
Cc1ccc(CNC(=O)c2ccc3c(c2)nc(C)n3-c2cccc(F)c2)cc1	inactive: 1.34%	–
CCOc1ccc(NC(=O)CSC2=Nc3ccccc3C3=NC(CCC(=O)NCc4ccccc4)C(=O)N23)cc1 (stereo not drawn)	inactive: 4.24%	–
Cc1cc(C(F)(F)F)n2nc(-c3ccc(Br)cc3)cc2n1	inactive: 2.79%	–
CCCCOc1ccc(-c2nn(-c3ccccc3)cc2C2NC(=O)NC(C)=C2C(=O)OCC)cc1 (stereo not drawn)	inactive: -3.44%	–
COc1ccc(OCC(=O)NCc2ccc3c(c2)CCN3C(=O)c2ccccc2)cc1	inactive: -7.05%	–
COc1ccccc1N1CCN(c2ncnc3c2cnn3-c2cc(Cl)ccc2C)CC1	inactive: 2.57%	–
CCc1ccc(C(=O)c2cn(CC(=O)Nc3cccc(OC)c3)c3ccc(OC)cc3c2=O)cc1	inactive: -0.195%	–

SMILES	activity change, negative = inhibition	Potency
Cc1cc2oc(C(=O)Nc3ccc(S(N)(=O)=O)cc3)cc(=O)c2cc1C	inactive: 5.18%	–
O=C(c1cc2ccccc2oc1=O)N1CCN(c2ccc(Cl)cc2)CC1	inactive: 1.43%	–
O=C(NCCc1ccccc1)c1cnc2sc(N3CCCCCC3)nn2c1=O	inactive: 0%	–
Cc1ccc(C(=O)N2c3ccc(C)cc3C(C)(c3ccccc3)CC2(C)C)cc1 (stereo not drawn)	inactive: 9.23%	–
CCc1cccc(NC(=O)CN2C(=O)COc3ccc(S(=O)(=O)Nc4ccccc4)cc32)c1	inactive: 1.8%	–
CCOC(=O)c1ccc(N2C(=O)c3[nH]nc(-c4ccc(C)cc4)c3C2c2cccc(F)c2)cc1 (stereo not drawn)	inactive: -27.9%	–
Cc1ccc(CSc2nc3ccc(NC(=O)COc4ccccc4)cc3s2)cc1	inactive: 0.7%	–
Cc1ccc(OCc2nc(-c3ccc(C(=O)N4CCN(c5ccccc5F)CC4)cc3)oc2C)cc1	inactive: -0.65%	–
COc1ccc(CNC(=O)Cn2c(SCC(=O)Nc3ccc(OC)cc3)nc3ccccc32)cc1	inactive: -2.12%	–
Cc1cccc(-n2ncc(C(=O)N3CCN(c4ccc(Cl)cc4)CC3)c2C2CCN(C(=O)OC(C)(C)C)CC2)c1	inactive: 0.699%	–
O=C1OC(C(=O)Nc2cccc(Br)c2)Cc2ccccc21 (stereo not drawn)	inactive: -3.38%	–
CCc1ccc2nc(N(CCN(CC)CC)C(=O)c3ccco3)sc2c1	inactive: -10.4%	–
Cc1ccc(NC(=O)c2ccc(-c3cccc(Cl)c3C)o2)cc1	inactive: 10.9%	–
COc1ccc(OC)c(CNC(=O)c2cc3c(-c4ccc(OC)c(OC)c4)nn(C)c3s2)c1	inactive: 0.714%	–
CN(C)S(=O)(=O)N(CC(=O)NCCSCc1ccccc1)c1ccccc1	inactive: 3.52%	–
CCCCCn1c(=O)[nH]c2cc(C(=O)Nc3cc(C)cc(C)c3)ccc2c1=O	inactive: -13.5%	–
Cc1cccc(N2C(=O)N(CC(=O)C(C)(C)C)c3ccccc3S2(=O)=O)c1C	inactive: -6.82%	–
Cc1ccc(C)c(NC(=O)CN2CCCN(Cc3cccc(Cl)c3)S2(=O)=O)c1	inactive: -4.62%	–
COc1ccc(Cl)cc1NC(=O)c1cc(S(=O)(=O)NC2CCCCCC2)ccc1F	inactive: 0.481%	–
Cc1cccc(NC(=O)CSc2cn(CC(=O)N3CCCCCC3)c3ccccc23)c1	inactive: -8.55%	–
Cc1cc(OC(C)C(=O)Nc2c(C(=O)c3ccc(F)cc3)oc3ccccc23)ccc1Cl (stereo not drawn)	inactive: -1.42%	–
CCc1ccc(Sc2cc(C(=O)NCc3ccccc3OC)c3ccccc3n2)cc1	inactive: 1.34%	–
COC(=O)c1ccc(OCC2c3cc(OC)c(OC)cc3CCN2C(=O)Cc2ccc(OC)cc2)cc1 (stereo not drawn)	inactive: -0.271%	–
CCc1ccc(Sc2cc(C(=O)NCc3cccc(OC)c3)c3ccccc3n2)cc1	inactive: 9.1%	–

SMILES	activity change, negative = inhibition	Potency
COc1ccc(C2NC(=O)N(C)C3=C2C(=O)N(c2cccc(Cl)c2)C3)cc1 (stereo not drawn)	inactive: -1.48%	–
CCOc1ccc(N2CC(NC(=O)C(=O)c3c[nH]c4ccccc34)CC2=O)cc1 (stereo not drawn)	inactive: -1.11%	–
CCn1c(=O)cc(SCC(=O)NCc2ccc(F)cc2Cl)c2ccccc21	inactive: -7.41%	–
COc1cccc(CNC(=O)c2c(C)nn(-c3cccc(C)c3)c2-n2cccc2)c1	inactive: -4.26%	–
O=C(NCCCc1ccccc1)c1nn(-c2ccccc2F)nc1CO	inactive: 0.158%	–
O=C(NCCc1ccccc1)c1ccc(CSc2nc3cccnc3n2Cc2ccc(F)cc2)cc1	inactive: -2.66%	–
CC(=O)c1ccc(NC(=O)C2CCC(CNS(=O)(=O)c3ccc(Br)s3)CC2)cc1 (stereo not drawn)	inactive: 0.112%	–
O=C(NC(=O)c1cccc(F)c1)Nc1ccc(-c2cc(C(F)(F)F)nn2-c2ccccc2)cc1	inactive: -2.06%	–
Cc1nc(-c2ccc(C)c(N3CCN(C(=O)Nc4ccccc4C(F)(F)F)CC3)c2)no1	inactive: -1.13%	–
Cc1ccc(C(=O)Nc2nnc(S(=O)(=O)N3CCOCC3)s2)cc1	inactive: 2.75%	–
COC(=O)c1ccc(NC(=O)C2(S(=O)(=O)c3ccc(C)cc3)CC2)cc1	inactive: -15.6%	–
COC(=O)c1sc(-c2ccccc2)cc1NC(=O)c1cccc(F)c1	inactive: 0.128%	–
O=C(NCc1ccc(F)cc1)C1CCN(C(=O)c2ccc(-n3ccc4ccccc43)s2)CC1	inactive: -13.6%	–
Cc1ccc(CN2CCCn3nc(C(=O)NCCC(C)C)cc3C2=O)cc1	inactive: 0%	–
Cc1ccc(S(=O)(=O)N2CCC(Oc3ccc(-n4cnnn4)cc3)CC2)cc1	inactive: -1.68%	–
COc1ccc(CC(=O)Nc2ccc3nc(Nc4cccc(Cl)c4)cc(C)c3c2)cc1OC	inactive: -7.94%	–
COc1ccc(CNCCSc2nnnn2-c2ccccc2)cc1	inactive: -11.8%	–
COc1ccccc1-n1cc(-c2ccc(C)cc2)nc1S(=O)(=O)CC(=O)Nc1ccccc1C(F)(F)F	inactive: 0%	–
CCc1ccc(-n2nnc(-c3nc(-c4ccccc4)no3)c2C)cc1	inactive: -2.38%	–
COc1ccc(CCNC(=O)c2ccc3c(c2)N(Cc2cccc(C)c2)C(=O)c2ccccc2S3(=O)=O)cc1OC	inactive: -1.49%	–
CCn1cc(S(=O)(=O)c2cc(C)cc(C)c2)c(=O)c2cc(F)c(N3CCOCC3)cc21	inactive: -1.33%	–
